Laboratory results published in paper PMC12136788.
This is one part of the list.

T1: UNK ZnF1-6 (called full-length) (human, UniProt Q9C0B0 30-357)
T1 sequence: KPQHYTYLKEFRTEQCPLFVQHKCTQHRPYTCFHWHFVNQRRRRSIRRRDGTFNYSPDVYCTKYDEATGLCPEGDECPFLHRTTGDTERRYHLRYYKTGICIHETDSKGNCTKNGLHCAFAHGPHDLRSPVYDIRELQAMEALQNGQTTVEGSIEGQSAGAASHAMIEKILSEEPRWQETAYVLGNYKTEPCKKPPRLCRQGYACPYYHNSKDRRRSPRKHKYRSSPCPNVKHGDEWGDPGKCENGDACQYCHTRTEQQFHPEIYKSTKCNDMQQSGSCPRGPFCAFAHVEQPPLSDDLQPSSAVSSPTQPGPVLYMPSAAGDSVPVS

B1: ENSG00000198589:be:win_1751|CDS|ENSG00000198589|bound_else_gene|NA|bound_elsewhere_windowed (ssRNA)
RNA: GGGAGUUCUACAGUCCGACGAUCCCAAGGUUCAACUGAUGCUCUAUACUUAUCUGUCCACGGAAUUCAUUGGUACAGUCAACAUAUAUAACACCAUUCGGAGAGUUGGAACAGUGCUUCUCAUCAUGCACACGCUGAAGUACUCAACAGAGGAUUGAGCAUCA
B2: chr20:56370492:56370607:-|CDS|ENSG00000087586|unk|total|mutant (ssRNA)
RNA: GGGAGUUCUACAGUCCGACGAUCUCGGAUGCAUGAUGAGAAGGUGGAUCUCUGGAGCCUUGGAGUUCUUUGCUAUGAAUUUUCCGUUGGGAAGCCUCCUUUUGAGGCAAACACAUACCAAGAGACCUACAAAAGAAUAUCACGCAACAGAGGAUUGAGCAUCA
B3: chr1:92387783:92387894:+|3pUTR|ENSG00000122484|unk|total|mutant (ssRNA)
RNA: GGGAGUUCUACAGUCCGACGAUCGGGAGCUCCGUGGGCAAGGAGGCCGGGAUAUAAUUUCUCUUCUUGGCUCCACCAGUAAUCCGCUCUGUGGCCCAGUCACCUAAACUUUCUGGACUUCAGUUCAGGUUGUAUGGCAGCCGGCAACAGAGGAUUGAGCAUCA
B4: chr21:30561100:30561289:-|CDS|ENSG00000244362|control|control|control (ssRNA)
RNA: GGGAGUUCUACAGUCCGACGAUCAGCUACUAUGGAGGCCUAGGCUACGGCUGUGGAGGAUUCGGUGGCCUGGGCUAUGGCUAUAGCUGUGGAUGUGGCAGCUUCCGCAGACUGGGCUAUGGCUGUGGCUAUGGAGGCUACAGACAACAGAGGAUUGAGCAUCA
B5: chr12:104760787:104760888:+|3pUTR|ENSG00000171310|unk|total|mutant (ssRNA)
RNA: GGGAGUUCUACAGUCCGACGAUCUUCUUUUCUAAUGGCAUUGAAACUUUAAAAAAAAUGGAUUCAACUGUUUUUGCAGAAUGCCGAAAGUAUUCUGUGUCCUUGGUUAAAGAAAUCCACUUGUGAAGUGUGCCUGGAAAAUGACAACAGAGGAUUGAGCAUCA
B6: chr4:75812186:75812332:+|CDS|ENSG00000138768|unk|total|mutant (ssRNA)
RNA: GGGAGUUCUACAGUCCGACGAUCAGAGCAGCUGGAUUCAUCUAACCGUACCAUUGCCAUUUUACAAACUGAGAAAGACAAACCCGAGUUGGAAAUUACAGAUUCUAAAAAAGAACAAGAUGAUCUCUUGGUGCUCUUGGCCGACAACAGAGGAUUGAGCAUCA
B7: chr6:42978268:42979150:-|CDS|ENSG00000124587|control|control|control (ssRNA)
RNA: GGGAGUUCUACAGUCCGACGAUCACUUCACAGCCGCACUUGGCUAGGGUGCAGGUCCUAGAACCUCGCUGGGACCUCUCUGAUAGACUGGGACCCGGCUCUGGACCGCUGGGAGAGCCCCUCGCUGACGGACUGGCGCUUGUCCAACAGAGGAUUGAGCAUCA
B8: chr20:7982266:7982367:-|CDS|ENSG00000125827|msi1|total|mutant (ssRNA)
RNA: GGGAGUUCUACAGUCCGACGAUCGAGAAGUGAGGCCAAUGAUCAGGGGCCCCCAGGAGAGGACGGUGUGACCCGGGAGGAAGCCGAGCCUGAGGAGGCUGAAGAAGGCAUCUCUGAGCAACCCUGCCCAGCUGACACAGAGGUCAACAGAGGAUUGAGCAUCA
B9: ENSG00000070961:be:win_601|CDS|ENSG00000070961|bound_else_gene|NA|bound_elsewhere_windowed (ssRNA)
RNA: GGGAGUUCUACAGUCCGACGAUCCAGGUCAUUCAGAUACCUGUAGCUGACAUUACUGUUGGAGAUAUUGCUCAAGUGAAAUAUGGUGAUCUUCUUCCAGCUGACGGCAUACUUAUUCAAGGCAACGAUCUUAAAAUUGAUGAACAACAGAGGAUUGAGCAUCA
B10: chr17:41691520:41691533:+|3pUTR|ENSG00000173812|msi1_unk|FALSE|overlapping (ssRNA)
RNA: GGGAGUUCUACAGUCCGACGAUCGGAACAAAUCUCAAACUGAUCCAUCAGUCAUGUAGCUAGCUGUAGAGCUUGCAACUUAAUAGCAGCAGCUGCCCAAUGCCAUGUGAAGUAACAAACUGGUUUUUGGUUUUUUUUUCCCCUCAACAGAGGAUUGAGCAUCA
B11: chr22:41177882:41177989:+|CDS|ENSG00000100393|unk|FALSE|unique (ssRNA)
RNA: GGGAGUUCUACAGUCCGACGAUCCAAAACCUUUUGCGGACUCUCAGGUCUCCCAGCUCUCCCCUGCAGCAGCAACAGGUGCUUAGUAUCCUUCACGCCAACCCCCAGCUGUUGGCUGCAUUCAUCAAGCAGCGGGCUGCCAAGCAACAGAGGAUUGAGCAUCA
B12: chr11:35229396:35229958:+|3pUTR|ENSG00000026508|msi1|total|mutant (ssRNA)
RNA: GGGAGUUCUACAGUCCGACGAUCAUAUGUAUUCCUGAUCGCCAACCUUUCCCCCACCAGCUAAGGACAUUUCCCAGGGUUAACCGGGCCUGGUCCCUGGGAGGAAAUUUGAAUGGGUCCAUUUUGCCCUUCCACCGCCUAAUCCAACAGAGGAUUGAGCAUCA
B13: chr11:102693905:102694065:-|CDS|ENSG00000137675|control|control|control (ssRNA)
RNA: GGGAGUUCUACAGUCCGACGAUCCUUGCCAGAUUAUCCCAAAUCCAUCCAUACAUUAGGUUUUCCAGGACGUGUGAAGAAAAUAGAUGCAGCCGUCUGUGAUAAGACCACAAGAAAAACCUACUUCUUUGUGGGCAUUUGGUGCAACAGAGGAUUGAGCAUCA
B14: ENSG00000124766:be:win_2101|3pUTR|ENSG00000124766|bound_else_gene|NA|bound_elsewhere_windowed (ssRNA)
RNA: GGGAGUUCUACAGUCCGACGAUCUGCCCCCUCUGCAGCCGGAGGAGGAGAUGUUGAGGGGAGGAGGCCAGCCAGUGUGACCGGCGCUAGGAAAUGACCCGAGAACCCCGUUGGAAGCGCAGCAGCGGGAGCUAGGGGCGGGGGCAACAGAGGAUUGAGCAUCA
B15: chr18:3457781:3457936:+|CDS|ENSG00000177426|unk|total|mutant (ssRNA)
RNA: GGGAGUUCUACAGUCCGACGAUCCAACACUCCUCCCCCUACUCCACCGGACCUCAACCAGGACUUCAGUGGAUUUCAGCUUCCCGUGGAUGUUGCACUCAAACGGGCUGCAGAGAUGGAGCUUCAGGCAAAACUUACAGCUUACAACAGAGGAUUGAGCAUCA
B16: chr4:102887774:102887875:+|3pUTR|ENSG00000145354|msi1|FALSE|unique (ssRNA)
RNA: GGGAGUUCUACAGUCCGACGAUCUUGGUUUUGAUAAUCUGAAGUGUUUUUUUCUCGUUUUGGCCUUCCAAACUGCAUUUGGUUAGGUGAAUUAAGAAAAAUAUUGCCAUCAAGAAUUACUUGUGUUUUCACAGAGAUAGACUCCAACAGAGGAUUGAGCAUCA
B17: chr14:90848141:90848242:-|3pUTR|ENSG00000100784|unk|FALSE|unique (ssRNA)
RNA: GGGAGUUCUACAGUCCGACGAUCCGAUAACUGGUACUGCCUUUGAUUAAAGGUGAGCUAUAUGGAGUUAAGCAUUUUUAUACUAGUAACUAUUUAUUGAGAAUUUUCAGAAUUCUAUAGCUACUUGUCUUUAACAGUUAUAAGCAACAGAGGAUUGAGCAUCA
B18: chr11:95131931:95132033:+|3pUTR|ENSG00000149218|unk|total|mutant (ssRNA)
RNA: GGGAGUUCUACAGUCCGACGAUCGGACCGGUGGCUGAGACCCACUGCCCUGAGCUACCCGUGUGGCUGUGCCUGUGGGUCUCCCGAACCAUCUGCAUUGGACGUGAAGCCACAGCAGGUGGCUGGACUGCUGGCCUGUUCCUACAACAGAGGAUUGAGCAUCA
B19: chr20:2117184:2117286:+|CDS|ENSG00000125834|unk|FALSE|unique (ssRNA)
RNA: GGGAGUUCUACAGUCCGACGAUCGCUCCUGGGGACCUACAUUAAACAGGGGACUGAGAUCGUCCCUGUUGGUGAGGCGCUGCUAGAAAACCCAAAGAUGGAGUUGCACAUCCCCCAAAAACGCAGGACUUCCAUGUCUGAGGGCAACAGAGGAUUGAGCAUCA
B20: chr16:67638976:67639077:+|3pUTR|ENSG00000102974|unk|total|mutant (ssRNA)
RNA: GGGAGUUCUACAGUCCGACGAUCAAACACUUUUUUCUUCUGUGUAUUGCUUUUAAGAGAGCCAUCAGUCCGCUAUCAGACUCCCGGUUGAUGCAUUUUGUACUCCGCUGUACUGUGUGAUAUUUUUCAUUAUUUCCGGACGCCCAACAGAGGAUUGAGCAUCA
B21: chr1:28742582:28742694:+|CDS|ENSG00000198492|unk|FALSE|bound_elsewhere (ssRNA)
RNA: GGGAGUUCUACAGUCCGACGAUCAGCAACGGAGAGCCCCACUUCCUACCAGAUGCAAUGUUUGGGCAACCAGGAGCCCUAGGUAGCACUCCAUUUCUUGGUCAGCAUGGUUUUAAUUUCUUUCCCAGUGGGAUUGACUUCUCACAACAGAGGAUUGAGCAUCA
B22: chr13:19825080:19825183:-|CDS|ENSG00000132950|unk|FALSE|unique (ssRNA)
RNA: GGGAGUUCUACAGUCCGACGAUCUUUUAGAGAAGAAAAUGAGAAACAAUUAUAUGGAUCGUCAAAUACACUUUUGAAAAAAAUAGAGGGAAUCCCAGAAAAAAAGGAAAAGACUUCACAGCUACAGCUUUCAGUAGAAUGUGGCAACAGAGGAUUGAGCAUCA

Biological target: T1, UNK ZnF1-6 (called full-length)
Assay: nsRBNS (natural sequence RNA bind-n-seq); RBNS binding buffer (assumed for nsRBNS): 25 mM Tris pH 7.5, 150 mM KCl, 3 mM MgCl2, 0.01% Triton X-100, 500 ug/ml BSA, 20 U/ml SUPERase-In, 4 C; UNK is unkempt and MSI1 is Musashi-1; names of the RNAs are library labels; protein concentration not given here; high values mean tight binding

Row | Binder | binding signal
1 | B1 | 0.372 enrichment R
2 | B2 | 0.443 enrichment R
3 | B3 | 0.715 enrichment R
4 | B4 | 0.816 enrichment R
5 | B5 | 0.346 enrichment R
6 | B6 | 0.434 enrichment R
7 | B7 | 0.699 enrichment R
8 | B8 | 0.95 enrichment R
9 | B9 | 0.248 enrichment R
10 | B10 | 0.632 enrichment R
11 | B11 | 0.945 enrichment R
12 | B12 | 0.541 enrichment R
13 | B13 | 0.534 enrichment R
14 | B14 | 1.41 enrichment R
15 | B15 | 0.745 enrichment R
16 | B16 | 0.354 enrichment R
17 | B17 | 1.77 enrichment R
18 | B18 | 0.499 enrichment R
19 | B19 | 1.08 enrichment R
20 | B20 | 0.443 enrichment R
21 | B21 | 0.665 enrichment R
22 | B22 | 1.16 enrichment R
